In PMC4336329 (PLoS ONE, 2015):
In all, about 310,000 compounds went through this assay and about 14,000 (4.5%) showed an effect of 50% or more. Effects have a minus sign here. The list shows a part of the results.

target: human ether-à-go-go-related gene (hERG) potassium channel (human, UniProt Q12809); assay: primary screen, population patch clamp on CHO cells stably expressing hERG
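Note: peak tail current of the secondary pulse compared with the same well before compound.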

Sequence of human ether-à-go-go-related gene (hERG) potassium channel (Q12809 whole entry, looked up): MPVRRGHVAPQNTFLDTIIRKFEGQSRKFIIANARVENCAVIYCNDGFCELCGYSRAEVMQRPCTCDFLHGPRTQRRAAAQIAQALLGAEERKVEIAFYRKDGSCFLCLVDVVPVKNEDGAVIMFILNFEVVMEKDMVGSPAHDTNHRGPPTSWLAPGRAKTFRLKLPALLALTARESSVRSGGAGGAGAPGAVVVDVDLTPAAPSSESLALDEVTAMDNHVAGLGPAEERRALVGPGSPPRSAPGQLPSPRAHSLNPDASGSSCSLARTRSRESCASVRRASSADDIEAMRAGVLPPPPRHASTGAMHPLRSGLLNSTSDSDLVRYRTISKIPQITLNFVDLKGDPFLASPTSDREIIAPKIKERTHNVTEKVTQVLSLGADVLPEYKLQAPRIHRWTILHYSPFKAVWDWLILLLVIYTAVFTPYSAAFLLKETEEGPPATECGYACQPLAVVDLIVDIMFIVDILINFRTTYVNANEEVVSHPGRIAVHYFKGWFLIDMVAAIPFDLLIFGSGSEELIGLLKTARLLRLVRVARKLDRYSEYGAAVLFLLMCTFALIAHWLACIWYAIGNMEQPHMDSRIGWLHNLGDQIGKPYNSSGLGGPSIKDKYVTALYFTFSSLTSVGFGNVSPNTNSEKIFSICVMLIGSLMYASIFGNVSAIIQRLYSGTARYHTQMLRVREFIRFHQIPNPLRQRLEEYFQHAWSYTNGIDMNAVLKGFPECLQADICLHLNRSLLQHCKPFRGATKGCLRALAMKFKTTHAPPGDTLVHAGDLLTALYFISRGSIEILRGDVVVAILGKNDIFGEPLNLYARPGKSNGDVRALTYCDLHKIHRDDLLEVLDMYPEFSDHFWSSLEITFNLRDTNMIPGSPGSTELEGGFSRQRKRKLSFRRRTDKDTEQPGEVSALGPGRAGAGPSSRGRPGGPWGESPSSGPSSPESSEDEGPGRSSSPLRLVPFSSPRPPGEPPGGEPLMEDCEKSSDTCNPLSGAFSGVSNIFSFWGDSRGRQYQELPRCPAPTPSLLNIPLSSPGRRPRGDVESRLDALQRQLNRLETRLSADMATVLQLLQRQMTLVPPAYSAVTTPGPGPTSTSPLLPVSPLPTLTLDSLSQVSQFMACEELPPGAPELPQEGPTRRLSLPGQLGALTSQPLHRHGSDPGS

Structure (SMILES)	hERG current change (%, negative = inhibition) at 10uM [%]
Cc1ccc(CN2CCN(/N=C/c3cc(Br)cc(Br)c3O)CC2)c(C)c1	0.433
CC(=O)N1CCC(C(=O)N2CCN(S(=O)(=O)c3cccs3)CC2)CC1	14.3
CCCOc1ccc(C(=O)CCC(=O)OCC(=O)Nc2ccc(OCC)cc2)cc1	7.34
O=C(O)Cc1ccc(C(=O)CSc2ccccc2)s1	25.4
O=C(CN1C(=O)NC2(CCCC2)C1=O)OCCOc1cccc(Br)c1	7.92
S=C(c1ccc2c(c1)OCO2)N1CCOCC1	14.5
COC(=O)C1=C(C)N(c2ccc(C)cc2)/C(=C/c2cccs2)C1=O	5.45
CCOC(=O)CCn1cnc2ccc([N+](=O)[O-])cc2c1=O	-8.28
CC(C)CCNC(=O)c1c(CSc2ccccc2)noc1C(=O)NCc1ccccc1	7.2
Cc1cccc(NCC(=O)N/N=C\c2cccc(Oc3ccccc3)c2)c1	20.1
Cc1ccc(SCC(=O)Nc2ccc(N3CCN(C)CC3)c(F)c2)c(C)c1	-72
Cc1cc(N(CN2CCCC2=O)C(=O)c2ccccc2)no1	16.5
CCCCN(C(=O)c1cccc(S(=O)(=O)N2CCOCC2)c1)c1c(N)n(CCC)c(=O)[nH]c1=O	23.9
Nc1nonc1-c1nc2ccccc2n1CC(=O)N/N=C\c1ccc(-c2ccc(Cl)cc2)o1	17.1
O=C(CCSc1ccc(Cl)cc1)NC1CCCCC1	-5.39
Cc1ccc2nc(NC(=O)CN(C)S(=O)(=O)c3ccc(Br)s3)sc2c1	3.87
Br.COc1ccccc1Nc1nc(-c2cccc([N+](=O)[O-])c2)cs1	2.72
CN=C1S/C(=C\c2ccc(Cl)cc2)C(=O)N1C	27
C=CCOc1cc(OC)c(OC)c(OC)c1	8.69

Structure (SMILES)	hERG current change (%, negative = inhibition) at 10uM [%]
O=C(c1cc2ccccc2o1)N1CCCC1	10.8
CC(C)CCn1c(S(=O)(=O)O)nc2ccccc21	13.2
CC1CCc2sc3nc(N4CCN(CCO)CC4)n4ncnc4c3c2C1 (centres unmarked)	-42
Cc1c(C)c2c(c(C)c1O)CCC(C)(C(=O)O)O2 (centres unmarked)	12.4
CC(C)c1cc(NCc2ccccn2)n2c(nc3ccccc32)c1C#N	7.85
Cc1ccc(CC2S/C(=C(/C#N)C(=O)N3CCOCC3)N(c3ccccc3)C2=O)cc1 (centres unmarked)	-13.2
CC1(c2ccc([N+](=O)[O-])cc2)NC(=O)N(CC(=O)Nc2cccnc2Cl)C1=O (centres unmarked)	-18.7
Cc1nc2ccccn2c1C(=O)C(=O)Nc1cc(F)ccc1F	11.1
Cc1nc(-c2ccc(Cl)cc2)sc1C1(C)CC(c2ccc([N+](=O)[O-])cc2)=NO1 (centres unmarked)	13.4
COc1ccc(CC(=O)Oc2ccc(Cl)cc2Br)cc1S(=O)(=O)N1CCOCC1	6.13
O=C(Oc1ccc(/C=N/NC(=O)c2ccccn2)cc1)c1cccc(F)c1	2.86
CC(=O)N1c2ccc3ccccc3c2C2C=CCC2C1c1ccc(Br)cc1 (centres unmarked)	1.08
COC(=O)c1sccc1NC(=O)c1ccc(Cl)cc1	15.4
CC1(C)CC(=O)C2=C(C1)N(c1ccccc1)C(=O)CC2c1ccc(O)cc1 (centres unmarked)	10.8
CN(CC(=O)Nc1ccc(N2CCOCC2)cc1)C(=O)CCNC(=O)c1ccccc1Cl	17.8
COc1ccc(Br)cc1CNC(=O)CN1C(=O)C(c2ccccc2)Oc2cccnc21 (centres unmarked)	6.14
O=C(O)/C=C/C(=O)NCCNc1ncc(C(F)(F)F)cc1Cl	25.7
CCOC(=O)NC(=O)/C(N=Nc1ccc(C(F)(F)F)cc1)=C(\C)O	9.83
C/C(=N\Nc1ccc(C(F)(F)F)cc1[N+](=O)[O-])C1CC1	-10.3

Structure (SMILES)	hERG current change (%, negative = inhibition) at 10uM [%]
CC(=O)c1nnn(-c2c(F)cccc2F)c1C	3.16
CCOC(=O)C1(Cc2ccc(OC)cc2)CCN(C(=O)CCn2cccn2)CC1	-7.25
CCOC(=O)c1c(C)n(C)c2ccc(OC)c(NC(=O)CN3CCN(Cc4ccccc4)CC3)c12	-6.74
CC1(C)CC(=O)C(C=NCCc2ccc(S(N)(=O)=O)cc2)=C(O)C1	5.46
O=C(NCc1ccc(F)cc1)c1cnn2ccccc12	-4.56
Cc1cc(C)nc(NC(=O)c2cc(-c3ccc(C)s3)nc3ccccc23)c1	14.9
CS(=O)(=O)c1ccc2nc(NC(=O)c3cc4ccccc4o3)sc2c1	-10.1
COc1ccc(C2=NS(=O)(=O)N(C)C(C(=O)Nc3ccc4c(c3)OCO4)=C2)cc1OC	1.51
CCCCCOc1ccc(NC(=O)C2OC3OC(C)(C)OC3C3OC(C)(C)OC23)cc1 (centres unmarked)	-13.1
O=[N+]([O-])c1ccc(CN2CC=C(c3ccccc3)CC2)cc1	-21.5
C=CCn1c(SCC(=O)NCc2ccc3c(c2)OCO3)nc2scc(-c3ccccc3)c2c1=O	-7
O=C(Cc1ccc2c(c1)CCCC2)Nc1ccccc1Cl	5.64
CCOc1ccc(Cl)cc1S(=O)(=O)N1CCCC1	-6.06
COc1ccc(-n2c(=O)cc(N3CCN(c4ccccc4OC)CC3)[nH]c2=O)cc1	-1.78
COc1cccc(C(=O)NNS(=O)(=O)c2ccc(F)cc2)c1	9.31
COCCN(C(=O)c1csnn1)C(C(=O)NC1CCCCC1)c1ccc(C)cc1 (centres unmarked)	9.88
N#CCc1ccc(OC(=O)c2ccncc2)cc1	15.6
Cc1nn(Cc2ccccc2Cl)c(C)c1C(=O)NC1=NCCS1	11.4
